This passage reports binding signal results from publication PMC10668032.

The list shows a part of the results. At the low end of the ranking the order means little.

The target in this assay is SIX1-Q177R homeodomain (UniProt Q15475). The assay is described as follows: universal protein binding microarray. The following applies: Universal all-10-mer PBM (8x60K, AMADID 030236), 300 nM GST-tagged protein, Alexa Fluor 488 anti-GST; buffer, salt, pH and temperature not stated; high values mean tight binding; most listed sequences are background and not binding sites; double strand, one strand shown.
Take ATGTGCGA: the binding signal was -0.233 E-score.

As for CCATATGG, the binding signal is 0.0864 E-score. For CCCGCAAA the value was 0.0408 E-score; for CGGCTATA, -0.168 E-score. To ATCGGACA belongs 0.0788 E-score; to CGGGTTCA, 0.175 E-score; to AGCAAGGG, 0.0229 E-score. To CACTCACC belongs 0.242 E-score; to TATTTTGA, -0.0961 E-score. For GACACGGC, the binding signal was determined as 0.427 E-score. For CTAGTACA the value was 0.245 E-score. For ACAGTCCG the value was -0.202 E-score; for AGCTAGCA, -0.0665 E-score. For ACCAGGAT, the binding signal was determined as 0.151 E-score. For the sequence AAGCTGTA, the binding signal was -0.309 E-score.

AATGGATG: the binding signal was -0.203 E-score. For ACGGAACC the value was 0.101 E-score; for ATCCTACA, 0.195 E-score; for GACGTAAA, -0.108 E-score. To GATTTACC belongs -0.0312 E-score; to ATCGTGGC, -0.0687 E-score. To CAACGTCA belongs -0.17 E-score. For TACAGGGA, the binding signal was -0.123 E-score. For AGGTGTGA the value was 0.41 E-score; for CTCAGACC, -0.26 E-score. To CGCATCGA belongs 0.163 E-score. Regarding CATCACAA, the binding signal is -0.116 E-score. To GAGACATA belongs -0.172 E-score; to CGCTCTGA, 0.0151 E-score. For CAGGTGCC the value was 0.0486 E-score; for CCGCGGCG, 0.0607 E-score. Regarding CGTAGGCA, the binding signal was -0.0289 E-score.

Regarding CGCCTATC, the binding signal stood at 0.0681 E-score. To AGTTAACA belongs 0.14 E-score; to AGGATGAT, 0.0135 E-score. To AGTTGATC belongs 0.106 E-score; to AGATCTTC, -0.0134 E-score; to CATGCGTC, -0.162 E-score.

Regarding AGTCTCGC, the binding signal is -0.15 E-score.

As for GGAATCCA, the binding signal is -0.0217 E-score.

Take AGTTGCAC: the binding signal is 0.208 E-score. For CGTGATTC the value was -0.185 E-score; for TATATTCA, -0.0305 E-score. To AGTTTTAC belongs -0.0911 E-score; to AAGCTTTC, -0.188 E-score; to AACGGAGT, 0.152 E-score. For CAACGATA the value was -0.139 E-score; for AGCTTAGA, 0.0635 E-score.

As to AGGGGAGA, the binding signal is -0.164 E-score.

CCGGTGGA: the binding signal stood at 0.0977 E-score. Take GTCAAGGA: the binding signal was determined as 0.148 E-score. For ATCAAGCA the value was -0.139 E-score; for AACTGAGA, -0.0668 E-score; for CAGACCTA, -0.227 E-score. To CACATTTA belongs 0.0273 E-score; to CTAACCAC, 0.0865 E-score; to GAACGGAA, -0.14 E-score. To CCTTCTAA belongs -0.108 E-score.

In the case of ATTTTTGC, the binding signal is -0.143 E-score. Turning to GACTACAA, the binding signal was -0.117 E-score. To GGATATCA belongs -0.0403 E-score; to GCAAGGCC, -0.235 E-score; to GGAGGCGA, -0.0896 E-score. In the case of GGGAGACC, the binding signal was found to be 0.00473 E-score.

On to ACTACGTA, for which the binding signal was -0.181 E-score.

As for ATCACAGA, the binding signal was 0.0524 E-score. For the sequence TCGGGCCA, the binding signal was -0.0257 E-score. Regarding AACCGGAG, the binding signal was -0.0204 E-score. For CGCTCGTC the value was -0.127 E-score; for ACAGACAC, 0.392 E-score; for AGTAAATC, -0.036 E-score. In the case of ACGATAAT, the binding signal is -0.113 E-score. On to ATTCGATA, for which the binding signal was -0.0559 E-score. To CATGAGAA belongs -0.123 E-score. On to CGAGCGCC, for which the binding signal was 0.103 E-score. For CCTGTTAA the value was 0.0373 E-score; for ATCTTGCC, -0.214 E-score; for CACAAGAG, 0.0597 E-score.

Regarding ATTTATTA, the binding signal is -0.127 E-score. For GTTGATAA the value was 0.038 E-score; for CTCTGACA, 0.143 E-score; for GGTCTACA, 0.143 E-score.

As for CGCTCCCC, the binding signal was -0.127 E-score. To GAGGGCAA belongs -0.078 E-score; to CGTCCCAA, -0.197 E-score; to ATGCTCCC, -0.196 E-score.

With CGACCACG, the binding signal is -0.23 E-score.

Consider CAGAGCAC, for which the binding signal is 0.19 E-score. For TACGCAAA the value was -0.073 E-score; for GCCCCATA, -0.0822 E-score; for ACCTCTAA, -0.126 E-score. For TGGCATAA the value was 0.152 E-score; for ACCGGGCG, 0.197 E-score; for CTCTCTGA, 0.0838 E-score. In the case of AATTCCGG, the binding signal was 0.0307 E-score.

Turning to ACTTTATG, the binding signal is -0.0956 E-score. GTCTCTAA: the binding signal was -0.161 E-score. As to TCCCCACA, the binding signal is -0.0623 E-score.

On to CAGTAATG, for which the binding signal was -0.0785 E-score. To ATTAACGA belongs -0.0496 E-score; to ATGTATCA, -0.00998 E-score; to ATCCCGAT, 0.113 E-score. To CTCGCTCC belongs -0.0142 E-score; to AGGCATGC, -0.262 E-score. In the case of CCAATCCG, the binding signal is -0.0193 E-score.

Consider CATTCTCG, for which the binding signal was -0.138 E-score.

CGCGGAGC: the binding signal stood at 0.00858 E-score. To CATTATAG belongs -0.155 E-score; to AGTAAAAT, -0.0899 E-score; to ATGACTAA, -0.157 E-score. For TCGATCCA the value was -0.0762 E-score; for ACCCCAGA, 0.201 E-score; for GAATGCCC, -0.123 E-score. To GCGATCAC belongs 0.0962 E-score; to CCCCTAAG, 0.172 E-score; to CCCAGAAG, -0.0599 E-score.

Take GGTGAAAC: the binding signal came out at 0.0627 E-score. To CAACCTGA belongs -0.0569 E-score; to TCCACGGA, -0.203 E-score; to ACCTTCAG, 0.0819 E-score. Take GTACACTA: the binding signal amounted to 0.432 E-score. For ATTTTGGG the value was -0.222 E-score; for GCTGGGCA, -0.0944 E-score; for GCGGCCCC, -0.162 E-score. Regarding ACATTATC, the binding signal came to 0.0847 E-score.

With GTGGAAGA, the binding signal was -0.113 E-score. For AGGTTTAT the value was -0.0717 E-score. To GGCGCCCC belongs -0.127 E-score. In the case of CCCTTGTC, the binding signal is -0.0046 E-score. To CAATGCTG belongs -0.0836 E-score; to AACGTACA, 0.185 E-score. To GCCTCCCC belongs -0.0247 E-score; to GACTCACA, -0.0653 E-score; to GAGCAGGC, -0.123 E-score. For ACCGCCTC the value was -0.0778 E-score; for AATTCCGC, -0.245 E-score. For the sequence ATACTGAC, the binding signal was -0.0543 E-score. For TAGGCACA the value was -0.0381 E-score. As to GTCCAGAC, the binding signal was found to be 0.0235 E-score. Consider ATCTCATC, for which the binding signal was -0.0463 E-score.

As for CCTAACTA, the binding signal was -0.0368 E-score. In the case of GTTCAAGA, the binding signal is -0.163 E-score. In the case of ATACGGCA, the binding signal was found to be 0.0363 E-score.

Turning to CTCCGGCC, the binding signal is -0.0912 E-score.

On to AATGAAAG, for which the binding signal is -0.133 E-score.

On to CATAAGAG, for which the binding signal was -0.139 E-score. To AGAGTCCC belongs -0.0999 E-score; to AGTGAATG, -0.0081 E-score; to ATTACTTG, -0.00398 E-score.

AAGGCTCT: the binding signal is -0.306 E-score. To CGGTAGGA belongs -0.0422 E-score; to TAATAACA, 0.00234 E-score. In the case of CTTGCAAC, the binding signal is -0.168 E-score. For GAATACAC the value was 0.408 E-score.

In the case of CCAGAGTC, the binding signal amounted to 0.0461 E-score.

For GGGCCTAA, the binding signal was -0.0706 E-score. For ACTACGCT the value was -0.0243 E-score; for GACCCGGA, 0.184 E-score.

Take ACGCAGAT: the binding signal is -0.0547 E-score. Regarding CTCTTACC, the binding signal is -0.055 E-score.

Take ATATATGC: the binding signal was -0.116 E-score. For AGTTCCTG the value was -0.355 E-score; for ATACTAAA, -0.122 E-score. For AGACGGAT the value was 0.0819 E-score; for CGGTGATC, 0.163 E-score; for GCTCCAGA, -0.134 E-score. For CGCGCTTC the value was -0.0249 E-score. With AGGGCGAC, the binding signal is 0.0365 E-score. For ATACACGG, the binding signal was determined as 0.401 E-score. For ATAGTGAG the value was -0.0704 E-score; for ACTCTCCA, 0.105 E-score; for GGGACAAA, -0.139 E-score.
